Source: patent US11452781B2, “Method of preventing and treating type 1 diabetes, allograft rejection and lung fibrosis (by targeting the ATP/P2X7R axis)” (CHILDREN'S MEDICAL CENTER CORPORATION, priority 2013, dated 2022)

Test system: P2X7R2/2 C57BL6 mice transplanted with BALB/c islets
Test: Allogeneic islet transplantation into P2X7R-/- C57BL6 recipients
Settings: oATP-treated P2X7R2/2 recipients, n=5

periodate-oxidized ATP [oATP]
islet graft MST: 26 days
